Measured values from the supplement of paper PMC9446081.
In all, about 39,000 compounds went through this assay and about 220 (0.56%) showed activity. This is one part of the list.

system: Escherichia coli K-12 BW25113; experiment: relative growth (OD600 normalised to plate interquartile mean) (fraction); higher = less growth inhibition, active = 0.2 or less; settings: 50 µM; LB; incubation time: overnight (16-24 h)
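Further: static incubation at 37 °C against the wild-type strain, values averaged over two biological replicates.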

Q: Which relative growth does the source give for `CO[C@@H](CN(C)S(=O)(=O)c1cccc(Cl)c1)[C@@H](C)CN([C@@H](C)CO)S(=O)(=O)c1cccc(Cl)c1` here?
A: inactive: 1.01

Q: `Cc1ccc(S(=O)(=O)Nc2ccc3c(c2)C(=O)N([C@H](C)CO)C[C@@H](C)[C@@H](CN(C)Cc2ccc(C(=O)O)cc2)OCCCC[C@H](C)O3)cc1` was tested. Which relative growth did it give?
A: inactive: 1.01

Q: `C[C@H](CO)N1C[C@H](C)[C@H](CN(C)C(=O)Nc2ccc(F)cc2)OCc2ccccc2-c2ccccc2C1=O` was tested. Which relative growth did it give?
A: inactive: 0.998

Q: `C[C@@H]1CCCCO[C@H](CN(C)Cc2ccncc2)[C@H](C)CN([C@H](C)CO)C(=O)c2cc(NC(=O)Nc3ccccc3)ccc2O1` was tested. Which relative growth did it give?
A: inactive: 0.834

Q: For `CC(C)c1c(O)c(-c2cc3c(c(C(C)C)c2O)CCC2C(C)(C)CCCC32C)cc2c1CCC1C(C)(C)CCCC21C` (stereo not given), which relative growth is on record?
A: inactive: 1.06

Q: Which relative growth does the source give for `COc1ccc(CN(C)C[C@@H]2OCCCC[C@H](C)Oc3ccc(NC(=O)Nc4ccc(F)cc4)cc3C(=O)N([C@@H](C)CO)C[C@@H]2C)cc1` here?
A: inactive: 0.964

Q: `Cc1noc(C)c1NC(=O)N(C)C[C@@H]1OCCCC[C@@H](C)Oc2ccc(NC(=O)Nc3ccccc3)cc2C(=O)N([C@H](C)CO)C[C@H]1C` was tested. Which relative growth did it give?
A: inactive: 1.01

Q: `COCC#Cc1cnc2c(c1)C(=O)N([C@@H](C)CO)C[C@@H](C)[C@@H](CN(C)C(C)=O)O2` was tested. Which relative growth did it give?
A: inactive: 0.972

Q: With `N[C@H]1CCCN(Cc2cccc(O)c2)C1` as the compound, how does the relative growth read?
A: inactive: 1.01

Q: `C[C@@H]1CCCCO[C@@H](CN(C)Cc2ccc(Cl)c(Cl)c2)[C@H](C)CN([C@@H](C)CO)C(=O)c2cc(NC(=O)Nc3ccc(C(F)(F)F)cc3)ccc2O1` was tested. Which relative growth did it give?
A: inactive: 1

Q: `CC(C)(C)C1CCC(OC[C@@H](O)CN2CCC(CN3C(=O)c4cccc5cccc(c45)C3=O)CC2)CC1` (stereo not given in full) was tested. Which relative growth did it give?
A: inactive: 1.1

Q: How did the relative growth turn out when `COc1ccc(S(=O)(=O)N[C@@H]2C=C[C@@H](CC(=O)NCCc3ccncc3)O[C@@H]2CO)cc1` was run?
A: inactive: 0.985

Q: Which relative growth does the source give for `C[C@@H]1CCCCO[C@H](CN(C)S(=O)(=O)c2ccccc2)[C@H](C)CN([C@@H](C)CO)C(=O)c2cc(NS(C)(=O)=O)ccc2O1` here?
A: inactive: 0.992

Q: For `CCOC(=O)CSc1nc(=O)cn[nH]1`, which relative growth is on record?
A: inactive: 1.02

Q: With `COc1ccc(NC(=O)N(C)C[C@H]2OCCCC[C@@H](C)Oc3ccc(NC(=O)c4ccccc4)cc3C(=O)N([C@@H](C)CO)C[C@H]2C)cc1` as the compound, how does the relative growth read?
A: inactive: 0.994

Q: Which relative growth does the source give for `CC(C)NC(=O)Nc1ccc2c(c1)CC(=O)N([C@H](C)CO)C[C@H](C)[C@@H](CN(C)Cc1ccc(Oc3ccccc3)cc1)O2` here?
A: inactive: 1.02

Q: `C[C@@H]1CN([C@@H](C)CO)C(=O)Cc2cc(NC(=O)CCC(F)(F)F)ccc2O[C@H]1CN(C)S(=O)(=O)c1cccs1` was tested. Which relative growth did it give?
A: inactive: 1

Q: How did the relative growth turn out when `COCC(=O)N1C[C@H](C)[C@H](OC)CN(C)C(=O)c2ccc(NC(=O)Nc3ccccc3)cc2OC[C@@H]1C` was run?
A: inactive: 0.997

Q: With `COc1ccc(NC(=O)Nc2ccc3c(c2)C(=O)N([C@H](C)CO)C[C@H](C)[C@H](CN(C)Cc2ccncc2)OCCCC[C@H](C)O3)cc1` as the compound, how does the relative growth read?
A: inactive: 1.01

Q: With `C[C@@H]1CN([C@@H](C)CO)C(=O)CCCn2nncc2CO[C@@H]1CN(C)C(=O)Nc1cccc2ccccc12` as the compound, how does the relative growth read?
A: inactive: 1.02

Q: `C[C@@H]1CN([C@H](C)CO)C(=O)c2cc(NC(=O)Cn3cnnn3)ccc2O[C@@H]1CN(C)Cc1ccncc1` was tested. Which relative growth did it give?
A: inactive: 1.01

Q: Which relative growth does the source give for `COCC#Cc1ccc2c(c1)O[C@@H](CN(C)C(=O)CN(C)C)[C@@H](C)CN([C@H](C)CO)S2(=O)=O` here?
A: inactive: 0.854

Q: Which relative growth does the source give for `C[C@@H]1CCCCO[C@@H](CN(C)CC2CC2)[C@H](C)CN([C@H](C)CO)C(=O)c2cc(NC(=O)CCC(F)(F)F)ccc2O1` here?
A: inactive: 1.03

Q: Which relative growth does the source give for `CN1C(=O)[C@@H]2[C@@H]3C[C@H]4[C@@H](O[C@H]1[C@H]42)[C@H]3O` here?
A: inactive: 1

Q: For `COCC(=O)N1C[C@@H](C)[C@@H](OC)CN(C)C(=O)c2ccc(NC(=O)c3ccc(F)cc3)cc2OC[C@H]1C`, which relative growth is on record?
A: inactive: 0.995

Q: How did the relative growth turn out when `O=C(C[C@H]1C[C@H]2c3cc(NC(=O)NC4CCCC4)ccc3O[C@H]2[C@@H](CO)O1)NCc1ccc(Oc2ccccc2)cc1` was run?
A: inactive: 0.959

Q: For `CC(C)(C)[C@H]1COC(=O)[C@@H](NC(=O)OCC2c3ccccc3-c3ccccc32)CC=CC[C@@H](CC(=O)N[C@H](CO)Cc2ccccc2)C(=O)N1`, which relative growth is on record?
A: inactive: 1.02

Q: For `COc1ccc(S(=O)(=O)Nc2cccc3c2O[C@@H](CN(C)C(=O)NC(C)C)[C@H](C)CN([C@@H](C)CO)C3=O)cc1`, which relative growth is on record?
A: inactive: 1.02

Q: `O=C(C[C@@H]1CC[C@H]2[C@@H](COC[C@@H](O)CN2S(=O)(=O)c2ccc(F)cc2)O1)NCc1ccc(Cl)c(Cl)c1` was tested. Which relative growth did it give?
A: inactive: 0.882

Q: For `C[C@H]1CCCCO[C@@H](CN(C)Cc2ccccc2)[C@@H](C)CN([C@@H](C)CO)C(=O)c2cc(NS(=O)(=O)c3ccc(Cl)cc3)ccc2O1`, which relative growth is on record?
A: inactive: 0.889

Q: For `COc1ccc(NC(=O)N(C)C[C@H]2Oc3ccc(NC(=O)CCCN(C)C)cc3C(=O)N([C@@H](C)CO)C[C@@H]2C)cc1`, which relative growth is on record?
A: inactive: 0.994

Q: `C[C@@H]1CN([C@@H](C)CO)C(=O)c2cc(-c3cccc(C(=O)N(C)C)c3)cnc2O[C@@H]1CN(C)S(=O)(=O)c1ccc(F)cc1` was tested. Which relative growth did it give?
A: inactive: 1

Q: For `C[C@H]1CN([C@@H](C)CO)C(=O)c2cc(NS(C)(=O)=O)ccc2O[C@@H]1CN(C)Cc1ccc(C(F)(F)F)cc1`, which relative growth is on record?
A: inactive: 1.02

Q: For `COc1cc2nc(N3CCCN(Cc4ccccc4)CC3)nc(NC3CCN(Cc4ccccc4)CC3)c2cc1OC`, which relative growth is on record?
A: inactive: 0.916

Q: For `COc1ccc(NC(=O)Nc2ccc3c(c2)C(=O)N([C@H](C)CO)C[C@H](C)[C@@H](CN(C)S(=O)(=O)c2cn(C)cn2)O3)cc1`, which relative growth is on record?
A: inactive: 0.983

Q: With `CN(C)c1nc2ncnc(N)c2[nH]1` as the compound, how does the relative growth read?
A: inactive: 0.936

Q: `C[C@@H]1CN([C@@H](C)CO)C(=O)c2cc(NS(=O)(=O)c3ccc(F)cc3)ccc2O[C@@H](C)CCCCO[C@@H]1CN(C)Cc1ccc(C(F)(F)F)cc1` was tested. Which relative growth did it give?
A: inactive: 0.992

Q: For `CCOCCn1c(N2CCCN(C)CC2)nc2ccccc21.O=C(O)C=CC(=O)O.O=C(O)C=CC(=O)O`, which relative growth is on record?
A: inactive: 1.11

Q: Which relative growth does the source give for `Cc1nccn1CC1CCc2c(c3ccccc3n2C)C1=O.Cl` (stereo not given) here?
A: inactive: 0.98

Q: Which relative growth does the source give for `Cc1ccc(S(=O)(=O)N(C)C[C@H]2OCCCC[C@H](C)Oc3ccc(NC(=O)Nc4ccc5c(c4)OCO5)cc3C(=O)N([C@@H](C)CO)C[C@H]2C)cc1` here?
A: inactive: 1.02

Q: How did the relative growth turn out when `COc1ccc([C@H]([C@H](Cc2ccccc2)OC(C)=O)N(C[C@H](/C=C/c2ccccc2)CC(=O)N(C)C)[C@@H](Cc2ccccc2)C(OC)OC)cc1` was run?
A: inactive: 0.953

Q: How did the relative growth turn out when `Nn1c(Cn2ccnc2)nnc1Cn1ccnc1` was run?
A: inactive: 0.874

Q: `Cc1ccccc1-c1ccc2c(c1)O[C@@H](CN(C)C(=O)Nc1ccc(C(F)(F)F)cc1)[C@H](C)CN([C@H](C)CO)S2(=O)=O` was tested. Which relative growth did it give?
A: inactive: 1.06

Q: `C[C@@H]1CCCCO[C@@H](CN(C)S(C)(=O)=O)[C@H](C)CN([C@H](C)CO)C(=O)c2cc(NS(=O)(=O)c3ccccc3)ccc2O1` was tested. Which relative growth did it give?
A: inactive: 0.997

Q: For `Cn1cnc(S(=O)(=O)N2C[C@@H](O)COC[C@H]3O[C@H](CC(=O)NC4CCC4)CC[C@@H]32)c1`, which relative growth is on record?
A: inactive: 1

Q: With `O=C(c1ccco1)N1CCNCC1` as the compound, how does the relative growth read?
A: inactive: 0.989

Q: For `COc1ccc(S(=O)(=O)Nc2cccc3c2O[C@@H](CN(C)C(=O)Nc2c(C)noc2C)[C@@H](C)CN([C@@H](C)CO)C3=O)cc1`, which relative growth is on record?
A: inactive: 0.994

Q: `CN(C)CCCNC(=O)C[C@H]1C=C[C@@H](NC(=O)Cc2cccnc2)[C@H](CO)O1` was tested. Which relative growth did it give?
A: inactive: 1.02

Q: Which relative growth does the source give for `Cc1ccc(S(=O)(=O)N(C)C[C@H]2OCCCC[C@@H](C)Oc3ccc(NC(=O)Nc4ccc5c(c4)OCO5)cc3C(=O)N([C@H](C)CO)C[C@@H]2C)cc1` here?
A: inactive: 0.976

Q: For `[O-][n+]1onc2c1CCc1c-2nn(-c2ccccc2)[n+]1[O-]`, which relative growth is on record?
A: inactive: 0.984

Q: With `Cc1noc(C)c1NC(=O)N(C)C[C@@H]1OCCCC[C@H](C)Oc2ccc(NC(=O)Cc3ccccc3)cc2C(=O)N([C@@H](C)CO)C[C@@H]1C` as the compound, how does the relative growth read?
A: inactive: 0.989

Q: With `COCCNC(=O)C[C@H]1CC[C@H](NS(=O)(=O)c2ccc(C)cc2)[C@H](CO)O1` as the compound, how does the relative growth read?
A: inactive: 1.03

Q: For `C[C@@H]1CCCCO[C@@H](CN(C)C)[C@H](C)CN([C@@H](C)CO)C(=O)c2cc(NS(=O)(=O)c3cn(C)cn3)ccc2O1`, which relative growth is on record?
A: inactive: 0.976

Q: For `CC12CCC3c4ccc(OC(=O)c5ccccc5)cc4CCC3C1CCC2O` (stereo not given), which relative growth is on record?
A: inactive: 1.04

Q: With `C[C@@H]1CN([C@@H](C)CO)C(=O)c2cccc(NC(=O)C3CC3)c2O[C@@H]1CN(C)Cc1ccc(-c2ccccc2)cc1` as the compound, how does the relative growth read?
A: inactive: 1.02

Q: How did the relative growth turn out when `O=C(C[C@@H]1C[C@@H]2c3cc(NS(=O)(=O)c4ccc(F)cc4)ccc3O[C@@H]2[C@H](CO)O1)NCCN1CCCCC1` was run?
A: inactive: 1.05

Q: For `Cn1cnc(S(=O)(=O)N[C@H]2CC[C@@H](CC(=O)NCC3CC3)O[C@H]2CO)c1`, which relative growth is on record?
A: inactive: 0.999

Q: With `Nc1nc(N2CCC[C@@H](Cn3cc(CO)nn3)C2)c2c[nH]nc2n1` as the compound, how does the relative growth read?
A: inactive: 0.999

Q: How did the relative growth turn out when `COc1ccc(/C=C/C(=O)O[C@@H]2[C@@H](O)[C@H](C)O[C@@H](O[C@H]3[C@@H]4C=CO[C@@H](O[C@H]5O[C@@H](CO)[C@H](O)[C@@H](O)[C@@H]5O)[C@@H]4[C@@]4(CO)O[C@@H]34)[C@@H]2OC(C)=O)cc1` was run?
A: inactive: 1.02

Q: How did the relative growth turn out when `C[C@@H]1CCCCO[C@@H](CN(C)Cc2ccc(C(=O)O)cc2)[C@@H](C)CN([C@H](C)CO)C(=O)c2cc(NC(=O)Nc3ccc(C(F)(F)F)cc3)ccc2O1` was run?
A: inactive: 0.993
